# The list shows a part of the results.
# Columns and labels:
# HSkMC = human skeletal muscle cells; assay: cytotoxicity call (relative viability < 0.9); details: 10 µM
# HepG2 = assay: cytotoxicity call (relative viability < 0.9); details: 10 µM
# S. aureus RN4220 = assay: growth inhibition call (relative growth <= 0.2); details: 50 µM
SMILES,cytotoxicity call (HSkMC),cytotoxicity call (HepG2),growth inhibition call (S. aureus RN4220)
O=S(=O)(c1ccccc1)N1CCN(CCO)CC1,inactive,inactive,inactive
C[C@H](O)C(=O)Nc1c(I)c(C(=O)NC(CO)CO)c(I)c(C(=O)NC(CO)CO)c1I,inactive,inactive,inactive
COc1cc2c(cc1O)CCN[C@]21CS[C@@H]2c3c(OC(C)=O)c(C)c4c(c3[C@H](COC1=O)N1[C@@H]2[C@H]2c3c(cc(C)c(OC)c3O)C[C@@H]([C@@H]1O)N2C)OCO4,active,active,inactive
C[C@H](CO)N1C[C@H](C)[C@@H](CN(C)S(C)(=O)=O)Oc2ccc(NC(=O)NC3CCCCC3)cc2C1=O,inactive,inactive,inactive
C[C@H]1CCCCO[C@@H](CN(C)C(=O)c2ccccc2)[C@@H](C)CN([C@@H](C)CO)C(=O)c2cc(NS(=O)(=O)c3ccccc3)ccc2O1,inactive,inactive,inactive
COc1ccc(NC(=O)Nc2ccc3c(c2)C(=O)N([C@H](C)CO)C[C@@H](C)[C@H](CN(C)C(=O)Nc2ccc4c(c2)OCO4)OCCCC[C@@H](C)O3)cc1,inactive,inactive,inactive
C[C@@H]1CN([C@H](C)CO)C(=O)c2cc(NC(=O)Nc3ccc(F)cc3)ccc2O[C@@H](C)CCCCO[C@@H]1CN(C)C(=O)Cc1ccccc1,inactive,inactive,inactive
CC(=O)O[C@H]1C[C@](C)(O)C2=C[C@@H](O)[C@@](C)(O)[C@@H]2[C@H]2OC(=O)[C@@H](C)[C@@H]21,inactive,inactive,inactive
COc1ccc(NC(=O)Nc2ccc3c(c2)C(=O)N([C@H](C)CO)C[C@H](C)[C@@H](CN(C)Cc2ccc(C(F)(F)F)cc2)OCCCC[C@H](C)O3)cc1,inactive,inactive,inactive

# Reference: the antibiotic and cytotoxicity screens of Wong et al. (2023)
